Data published in PubChem BioAssay AID652104 (National Center for Advancing Translational Sciences (NCATS), 2013).
Out of some 410,000 compounds screened, about 7,200 (1.8%) were called active. The shares of active, inactive and inconclusive entries below differ from those in the screen. The call rests on the fitted dose curve; in most records, active means well fitted activation curve with a large enough effect; inconclusive means small, poorly fitted or top-dose-only effect, or another doubt; inactive means no such curve, though single readings can be large or run the other way. Potencies of inconclusive entries are left out as doubtful fits.

Test: qHTS of TDP-43 Inhibitors; further: nearly all actives have a fitted effect of over 50% in size
Settings: TDP-43 expressing yeast growth rescue, BacTiter-Glo, 24 h; series mostly up to 46.1 µM
Outline: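 Cell-based yeast growth screen: TDP-43 expression induced in galactose, inoculum OD600=0.02 after raffinose pregrowth to mid-log. Read-out BacTiter-Glo luminescence at 24 hr, 30 deg C; inhibition of toxicity seen as signal increase.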
Potency means the concentration at half of the fitted maximal effect; tags describe the fitted curve by direction and shape.

| Structure (SMILES) | Potency |
| --- | --- |
| CCOC(=O)c1ccccc1NC(=O)CSc1ncc(C(=O)OCC)c(N)n1 | inactive |
| Nc1cc(C(Cl)=C(Cl)Cl)c(S(N)(=O)=O)cc1S(N)(=O)=O | inconclusive [activator, single point] |
| O=C1CC(c2ccco2)Sc2nc3ccccc3n21 (stereo not drawn) | inconclusive [activator, partial curve] |
| CCn1cc2nc(SCC(=O)Nc3ccc(OC)cc3OC)n(Cc3ccc(Cl)cc3)c(=O)c2n1 | inconclusive [activator, partial curve] |
| CCN1CCN(C(=O)CSCc2nc(-c3ccc(OC)c(OC)c3)oc2C)CC1 | inconclusive [activator, partial curve] |
| CCOCCc1nn2c(=O)cc(COC(=O)c3ccccc3NC(=O)c3ccc(C)cc3)nc2s1 | inactive |
| O=C(Nc1cccc(Cl)c1)Nc1ccon1 | inconclusive [activator, single point] |
| Fc1ccccc1N1CCN(c2ncnc3c2nc2n3CCCC2)CC1 | inconclusive [activator, single point] |
| CCc1ccc(/C=C2/C(=O)NC(=O)N2C(C)=O)cc1 | inconclusive [activator, single point] |
| Clc1cccc(-n2ncc3c(NC4CCCCCC4)ncnc32)c1 | active: 35.5 µM |
| c1ccc(-c2nc3ccccc3c3nncn23)cc1 | inconclusive [activator, partial curve] |
| CN(C)c1ccc(NC(=O)Cn2cc(S(=O)(=O)Cc3ccccc3Cl)c3ccccc32)cc1 | inactive |
| CCC(C)NC(=O)Cn1c(=O)c2cccn2c2ccc(F)cc21 (stereo not drawn) | inactive |
| O=C(Nc1ccc(F)cc1Cl)c1cnc(N2CCOCC2)c2ccccc12 | inconclusive [activator, partial curve] |
| O=c1c2sc3ccccc3c2n(Cc2ccc(Cl)cc2)c(=O)n1Cc1ccco1 | inconclusive [activator, full curve, poor fit] |
| COc1ccc(CCNC(=O)CS(=O)Cc2nc(-c3cccs3)oc2C)cc1OC (stereo not drawn) | inconclusive [activator, partial curve] |
| COc1cc(NC(=S)N2CCC(C(O)(c3ccccc3)c3ccccc3)CC2)cc(OC)c1 | inconclusive [activator, full curve] |
| Cc1ccc(C(=O)N/N=C/c2ccc(-c3cccc(Cl)c3)o2)cn1 | inconclusive [activator, partial curve] |
| O=[N+]([O-])c1ccc(-[n+]2ccc3ccccc3c2)c([N+](=O)[O-])c1 | inconclusive [activator, partial curve] |
| COc1ccccc1Nc1nc(N)nc(-c2cc3ccccc3o2)n1 | inconclusive [activator, partial curve] |
| Cc1cccc(Cn2c(CN3CCCC(C)C3)nc3c2c(=O)n(C)c(=O)n3C)c1 (stereo not drawn) | inactive |
| CN(Cc1ccccc1)c1ncnc2sccc12 | inconclusive [activator, single point] |
| COc1cccc(CC(=O)Nc2ccc3nc(Nc4cccc(C(F)(F)F)c4)cc(C)c3c2)c1 | inactive |

| Structure (SMILES) | Potency |
| --- | --- |
| CCOC(=O)c1c(-c2ccc(F)cc2)csc1NC(=O)CCN1C(=O)c2ccccc2C1=O | inactive |
| Cc1nc2ccccn2c1C(=O)N/N=C/c1cc(C)n(-c2ccc(Cl)cc2)c1C | inconclusive [activator, single point] |
| Clc1ccc(CSc2nnc(-c3ccccn3)n2Cc2cccs2)cc1Cl | inconclusive [activator, partial curve] |
| Cc1cc(C)nc(NC(=O)/C=C/c2ccc(Cl)cc2Cl)c1 | active: 7.08 µM |
| S=C(NCCSCc1c(Cl)cccc1Cl)Nc1ccccc1 | active: 10 µM |
| Cc1ccccc1NC(=O)CCn1nc(-c2ccc(Cl)cc2)c2ccccc2c1=O | inconclusive [activator, partial curve] |
| O=C(CC12CC3CC(CC(C3)C1)C2)Nc1ccc2c(c1)COC2=O | inconclusive [activator, partial curve] |
| C=CCOc1ccc(C2=NOC(C(=O)Nc3ccc4c(c3)OCCO4)C2)cc1 (stereo not drawn) | inconclusive [activator, single point] |
| O=C(CSc1c[nH]c2ccccc12)NCc1ccc2c(c1)OCO2 | inactive |
| CC1(C)CC(=O)c2sc(NC(=O)CCS(=O)(=O)c3ccccc3)nc2C1 | inconclusive [activator, single point] |
| Cc1ccc(C(=O)Cn2nnc(-c3cccs3)n2)cc1 | inactive |
| CCOC(=O)c1cc(OC(=O)c2cc(OC)cc(OC)c2)n(-c2ccccc2)n1 | inactive |
| CN(CCc1ccccc1)C(=O)c1cc(COc2ccc(F)cc2Cl)on1 | inconclusive [activator, single point] |
| O=C(Cn1cnc2c(nnn2Cc2ccccc2)c1=O)NCc1ccco1 | inconclusive [activator, full curve, poor fit] |
| O=C(NCc1ccccc1)c1nc(-c2ccc(Cl)cc2)n2c1CCCCC2 | inconclusive [activator, partial curve, poor fit] |
| CCc1ccc2c(c1)NC(=O)C2(C)Cc1ccc(F)cc1 (stereo not drawn) | inconclusive [activator, single point] |
| COc1ccc(/C(O)=C/C(=O)C(=O)Nc2c(C)n(C)n(-c3ccccc3)c2=O)cc1 | inactive |
| CN(C)S(=O)(=O)c1ccc(Nc2ccc(-c3ccc4c(c3)OCCO4)nn2)cc1 | inactive |
| N#Cc1c(N2CCN(C(=O)c3ccccc3)CC2)nc(-c2ccccc2)c2c1CCCC2 | inconclusive [activator, single point] |
| CCN(Cc1nc(-c2cccc(C)c2)no1)C(=O)c1ccco1 | inconclusive [activator, single point] |
| COc1ccc(-c2nn(-c3ccccc3)cc2C(=O)Nc2nccs2)cc1OC | inconclusive [activator, partial curve] |
| COc1ccccc1NC(=O)Cn1ncc2c1-c1ccccc1OC2 | inconclusive [activator, partial curve] |
| CCc1ccccc1NC(=O)CCCn1c(=O)c2cccn2c2ccccc21 | inactive |

| Structure (SMILES) | Potency |
| --- | --- |
| COc1ccc(NS(=O)(=O)c2cc(NC(=O)c3ccc(C)s3)ccc2N2CCOCC2)cc1 | inactive |
| O=c1/c(=C/c2cccc3ccccc23)sc2ncnn12 | inconclusive [activator, single point] |
| COc1ccc(C)c2sc(=NC(=O)c3ccccc3)n(C)c12 | inconclusive [activator, partial curve] |
| COc1ccc(C(=O)Oc2ccc(C(c3c(C)[nH][nH]c3=O)c3c(C)[nH][nH]c3=O)cc2)cc1 | inconclusive [activator, single point] |
| C[C@@H]1CCCCO[C@@H](CN(C)S(=O)(=O)c2ccccc2)[C@@H](C)CN([C@H](C)CO)C(=O)c2cc(NS(=O)(=O)c3ccc(F)cc3)ccc2O1 | inactive |
| N#Cc1c(N)nc2c(c1-c1cccs1)CCCC2 | inconclusive [activator, partial curve] |
| O=C(O)c1ccc(Cl)c(S(=O)(=O)N2CCC(Cc3ccccc3)CC2)c1 | inconclusive [activator, single point] |
| C=CS(=O)(=O)c1c2cc(OC)ccc2nc2ccc(OC)cc12 | active: 3.55 µM |
| COc1cccc(COC(=O)c2cc(S(=O)(=O)N3CCOCC3)ccc2Cl)c1OC | inconclusive [activator, partial curve] |
| Cc1ccc(S(=O)(=O)N2CCc3cc(C(=O)Nc4ccc(Cl)cc4C)ccc32)cc1 | inactive |
| CCOc1cc(/C=N/NC(N)=O)cc(Br)c1OCc1ccccc1F | inconclusive [activator, partial curve] |
| Fc1cccc(C[n+]2csc3ccccc32)c1 | active: 3.55 µM |
| Cc1cc(NC(=O)COC(=O)c2c(C)c(C)c(C)c(C)c2C)no1 | inconclusive [activator, partial curve] |
| O=C(c1cn(-c2ccccc2)nc1-c1cccs1)N1CCN(c2ccccc2)CC1 | inconclusive [activator, single point] |
| O=S(=O)(Nc1cccc2ccccc12)c1ccccc1 | inactive |
| COC(=O)c1sccc1NC(=O)Nc1cccc(OC)c1 | inconclusive [activator, single point] |
| Cc1cc(C)c(C#N)c(Nc2ccccc2C)n1 | inconclusive [activator, single point] |
| COc1cccc(CNC(=O)c2cc3c(c(-c4cccc(-c5cccc(C#N)c5)c4)n2)[C@H](CCO)N(S(=O)C(C)(C)C)C3)c1 (stereo partly drawn) | inconclusive [activator, partial curve, poor fit] |
| Cc1cccc(Cn2cc(SCC(=O)Nc3nccs3)c3ccccc32)c1 | inconclusive [activator, full curve, poor fit] |
| COc1ccc(-c2csc(C(O)c3ccccc3)n2)cn1 (stereo not drawn) | inconclusive [activator, single point] |
| COc1cc2c(cc1OC)C(c1cc(Br)ccc1F)N(C(=O)CCl)CC2 (stereo not drawn) | inconclusive [activator, single point] |
| COc1cc(C2C(C(=O)Nc3ccccc3C)=C(C)Nc3nc(SCc4cc(C)ccc4C)nn32)ccc1O (stereo not drawn) | inconclusive [activator, partial curve] |
